Experimental data as given in PubChem BioAssay AID1030 (National Center for Advancing Translational Sciences (NCATS), 2008).
About 16,000 (7.3%) of roughly 220,000 compounds were called active. Inconclusive means that the source gave no clear call. Such entries were picked first, then a sample of the others. Calls come from the whole dose curve; as a rule, active = well fitted inhibition curve with a large enough effect (not every such curve was filed as active); inconclusive = small, poorly fitted or top-dose-only effect, or another doubt; inactive = no such curve, though single readings can be large or run the other way. No potency is given beside an inconclusive call; the fits are too rough.

target: Aldehyde dehydrogenase 1A1 (Homo sapiens) (UniProt P00352); test: qHTS Assay for Inhibitors of Aldehyde Dehydrogenase 1 (ALDH1A1); conditions: Purified ALDH1A1, NADH fluorescence, propionaldehyde substrate; series mostly up to 75.3 µM; activity, negative = inhibition: at the top concentration;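 for activity, negative = inhibition: plate controls were no enzyme wells and a reference inhibitor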
UniProt P00352, sequence (P00352 whole entry, looked up): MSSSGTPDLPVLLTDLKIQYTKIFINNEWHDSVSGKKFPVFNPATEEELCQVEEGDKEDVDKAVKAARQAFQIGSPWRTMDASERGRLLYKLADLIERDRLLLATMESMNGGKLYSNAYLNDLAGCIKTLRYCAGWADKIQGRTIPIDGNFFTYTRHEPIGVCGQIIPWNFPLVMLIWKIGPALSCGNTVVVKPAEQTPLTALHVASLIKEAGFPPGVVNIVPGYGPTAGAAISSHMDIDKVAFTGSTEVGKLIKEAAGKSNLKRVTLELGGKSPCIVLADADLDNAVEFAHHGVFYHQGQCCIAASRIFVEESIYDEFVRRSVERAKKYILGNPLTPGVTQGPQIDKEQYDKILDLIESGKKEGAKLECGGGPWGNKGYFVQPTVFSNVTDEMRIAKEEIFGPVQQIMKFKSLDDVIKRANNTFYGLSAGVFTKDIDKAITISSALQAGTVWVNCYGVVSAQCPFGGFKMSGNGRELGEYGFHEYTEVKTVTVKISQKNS
Potency is the fitted concentration of half-maximal effect; tags give direction and shape of the fitted curve.

Structure (SMILES) | Potency | activity, negative = inhibition
CC(Nc1cc(N2CCOCC2)ccc1[N+](=O)[O-])c1ccccc1 (configuration not stated) | inconclusive [inhibitor, single point] | 
CCCCOC(=O)Cc1c(O)c2ccccc2[nH]c1=O | inconclusive [inhibitor, partial curve] | 
CCc1cccc2c(C(=O)COC(=O)c3cccc(S(=O)(=O)N(C)C4CCCCC4)c3)c[nH]c12 | inconclusive [inhibitor, single point] | 
O=C(c1cc(-c2cccc(O)c2)on1)N1CCOCC1 | inconclusive [inhibitor, single point] | 
Cc1ccc(S(=O)(=O)c2nc(S(C)(=O)=O)sc2NCC2CCCO2)cc1 (configuration not stated) | inconclusive [inhibitor, single point] | 
CC1CCN(S(=O)(=O)N2CCC(C(=O)NCCN3CCOCC3)CC2)CC1 | inconclusive [inhibitor, single point] | 
Cc1cc(S(=O)(=O)Nc2c(C)nc3nc[nH]n3c2=O)ccc1F |  | inactive: -0.123%
CNC(=O)CSc1nnc(CCc2ccccc2)n1-c1ccccc1 | inconclusive [inhibitor, single point] | 
COC1(C)CC2C(CC1OC(=O)c1cc([N+](=O)[O-])cc([N+](=O)[O-])c1)C2(C)C (configuration not stated) | inconclusive [inhibitor, partial curve] | 
Cc1nn(-c2cccc(Cl)c2)c2c1C(c1cccnc1)C(C#N)=C(N)O2 (configuration not stated) | active: 7.94 µM | 
Cc1ccccc1OCc1n[nH]c(=S)n1Cc1ccccc1 |  | inactive: -13.2%
COc1ccc(-c2nc3c(c4c2C[C@H](c2ccccc2)OC4)CN(C(=O)C2CCCCC2)CC3)c(C)c1 | inconclusive [inhibitor, partial curve] | 
O=C(CO/N=C/c1ccccc1O)N1CCc2ccccc21 | active: 10 µM | 
c1ccc(N2CCN(c3nc4ccccc4n4cnnc34)CC2)cc1 |  | inactive: -10.7%
CCN(CC1CCCO1)C(=O)CCc1nnc(Cc2ccc3c(c2)OCO3)o1 (configuration not stated) | inconclusive [inhibitor, single point] | 
O=c1c2ccccc2nc(SCc2cn3ccsc3n2)n1-c1ccc(F)cc1 | inconclusive [inhibitor, single point] | 
Nc1nnc(/C=C/c2ccccc2Cl)s1 | inconclusive [inhibitor, partial curve] | 
CCOc1ccc(NCc2nnc(SCC(=O)Nc3cc(C)on3)n2-c2ccccc2OC)cc1 | inconclusive [inhibitor, single point] | 
COc1ccc(-c2cnn(-c3ccccc3)c2N)cc1OC | inconclusive [inhibitor, single point] | 
COc1ccc(NC(C)=O)cc1NC(=O)CN1CCN(CC(=O)Nc2ccc(Cl)cc2)CC1 | inconclusive [inhibitor, single point] | 
COc1ccc(CCNc2nc(C)nc3c2oc2ccccc23)cc1OC |  | inactive: -26.6%
CC(C)(C)C(=O)CSc1nnc(-c2cccs2)n1CC1CCCO1 (configuration not stated) |  | inactive: -5.07%
CC(C)(CCl)C(=O)Nc1ccnc(-c2ccncc2)n1 |  | inactive: 1.92%
COCCNC(=S)c1ccc(OC)cc1 | active: 20 µM | 

Structure (SMILES) | Potency | activity, negative = inhibition
Clc1ccc(SCCOCCN2CCc3ccccc3C2)cc1 | inconclusive [inhibitor, single point] | 
O=C(NCc1ccc(F)cc1)c1noc2c1CCCCC2 | inconclusive [inhibitor, single point] | 
CC/C(=C\C(=O)c1ccncc1)Nc1ccc(Br)cc1 | inconclusive [inhibitor, single point] | 
Cc1nc2ccccn2c1C(=O)CSc1ccccc1 |  | inactive: -14.1%
CCn1nnnc1-c1ccc(OC)c(S(=O)(=O)Nc2ccc(S(N)(=O)=O)cc2)c1 | inconclusive [inhibitor, partial curve] | 
COc1ccc(Oc2ncc3nc(C)c(=O)n(-c4ccccc4)c3n2)cc1 | inconclusive [inhibitor, single point] | 
Cc1cc(Nc2ccc3ccccc3c2)n2ncnc2n1 | inconclusive [inhibitor, single point] | 
CCOC(=O)CN1CC23C=CC(O2)C(C(=O)NCCc2ccccc2)C3C1=O (configuration not stated) | inconclusive [inhibitor, single point] | 
O=C(c1ccc2c(c1)C(=O)N(CCCO)C2=O)c1ccc2c(c1)C(=O)N(CCCO)C2=O | inconclusive [inhibitor, partial curve, poor fit] | 
OCCCNCc1ccncc1 |  | inactive: -3.23% [at 13.5 µM]
CCOCCCNC(=S)Nc1ccc2nc(N3CCCC3)cc(C)c2c1 | inconclusive [inhibitor, partial curve] | 
O=C(CSc1nnc(-c2ccc(Cl)cc2)n1-c1ccc(Cl)cc1)N/N=C/c1ccco1 | inconclusive [inhibitor, single point] | 
N#Cc1c(N)nc(SCc2ccccn2)c(C#N)c1-c1cccs1 | inconclusive [inhibitor, single point] | 
COc1ccc(Cl)cc1-n1c(C)cc(C=O)c1C | active: 12.6 µM | 
NC(=O)c1ccccc1N/C=C/C(=O)c1ccc(F)cc1 | inconclusive [inhibitor, partial curve] | 
CC/C(C)=N/Nc1nc2sc3c(c2c(=O)[nH]1)CC(C)(C)OC3 | inconclusive [inhibitor, partial curve] | 
O=C(NCc1ccco1)c1ccc(-c2ccccc2Cl)o1 | inconclusive [inhibitor, single point] | 
C/C(Cl)=C\CNC(C)c1ccccc1 (configuration not stated) |  | inactive: 4.14%
Cc1ccc(-c2c3c(=O)n(C)c(=O)n(C)c3cn2Cc2ccccc2)cc1 | inconclusive [inhibitor, single point] | 
O=C(/C=C/c1ccc(F)cc1)N1CCCN(C(=O)/C=C/c2ccc(F)cc2)CC1 | inconclusive [inhibitor, partial curve] | 
CCOc1ccc(NC(=O)CSc2ccccc2N)cc1 | inconclusive [inhibitor, single point] | 
COc1ccc(NC(C)=O)cc1NC(=O)CN1CCN(c2ccccn2)CC1 | inconclusive [inhibitor, single point] | 
Cc1n(-c2ccccc2)c2ccc(Cl)cc2[n+]1CCO |  | inactive: 6.39%
COCCN1C(=O)N[C@@H](c2ccccc2)C(C(C)=O)=C1C | inactive | 

Structure (SMILES) | Potency | activity, negative = inhibition
COc1ccc(CCn2c(C)nc3c(c(=O)c4ccccc4n3C)c2=O)cc1 | inconclusive [inhibitor, single point] | 
CCOC(=O)c1cc(-c2ccc(OC)cc2)n(CCC(=O)NCCN2CCC(C)CC2)c1C |  | inactive: 4.06%
COc1ccc(OCCNc2c([N+](=O)[O-])c(=O)oc3ccccc23)cc1 |  | inactive: 2.51%
Cn1c(=O)c2c(nc(CN3CCc4ccccc4C3)n2Cc2cccc(Cl)c2)n(C)c1=O | inconclusive [inhibitor, single point] | 
CCC(c1nnnn1CS(=O)(=O)c1ccc(C)cc1)N1CCN(c2nc3ccccc3s2)CC1 (configuration not stated) | inconclusive [inhibitor, single point] | 
CCOC(=O)c1cc2n(c1N)-c1ccccc1C2=O | inconclusive [inhibitor, single point] | 
COCCN1CCN(Cc2cn[nH]c2-c2cc3ccccc3o2)CC1 | inconclusive [inhibitor, single point] | 
NC(=O)C1CCN(c2nnnn2-c2ccccc2)CC1 | inconclusive [inhibitor, partial curve] | 
N#Cc1c(NC(=O)c2cc(C3CC3)on2)sc2c1CCC2 | inconclusive [inhibitor, partial curve, poor fit] | 
COC(=O)C1=C(C)OC(N)=C(C#N)C1c1cccnc1 (configuration not stated) |  | inactive: -4.18%
CC(=O)Nc1ccc(N2C(=O)c3ccc(C(=O)Nc4nnc(SCc5ccc(F)cc5)s4)cc3C2=O)cc1 |  | inactive: 2.23%
O=c1[nH]c(N2CCc3ccccc32)nc2c1CCCC2 | inconclusive [inhibitor, single point] | 
CCCCOC(=O)n1ccc(C(=O)Nc2ccccc2OC)n1 |  | inactive: 4.25%
CCOc1ccc2nc(Cl)c(C3CC(c4ccco4)=NN3S(=O)(=O)c3ccccc3)cc2c1 (configuration not stated) |  | inactive: -2.95%
Cc1ccc(NC(=O)CNc2ccccc2CN(C)C2CCCCC2)cc1 | active: 20 µM | 
O=C(/C=C/c1ccco1)NCc1ccc(F)cc1 | active: 17.8 µM | 
O=C(C1CCCO1)N(c1ccc(F)cc1)C1C=CS(=O)(=O)C1 (configuration not stated) |  | inactive: 15.7%
NC(=S)n1[nH]c(-c2ccc([N+](=O)[O-])cc2)c(N=Nc2ccccc2[N+](=O)[O-])c1=O | inconclusive [inhibitor, partial curve] | 
CC1=C(C(N)=O)C(c2ccc3c(c2)OCO3)n2nc(-c3cccc(C)c3)nc2N1 (configuration not stated) | active: 3.55 µM | 
CCOC(=O)c1nnn(-c2nonc2N)c1CNc1ccc(C)c(Br)c1 | inconclusive [inhibitor, single point] | 
Cc1ccc(NC(=O)COC(=O)[C@H](C)N2C(=O)C3CC=CCC3C2=O)cc1S(=O)(=O)N(C)C (some centres not stated) |  | inactive: -3.52%
CCOC(=O)c1sc(NC(=O)CNCc2ccccn2)c(C(=O)OCC)c1C | inconclusive [inhibitor, partial curve] | 
COc1cc(C(=O)Nc2ccc(S(=O)(=O)Nc3ncccn3)cc2)c([N+](=O)[O-])cc1OC |  | inactive: -9.14%
COc1ccccc1/C=C/CN1CCCC(CO)(Cc2cccc(Cl)c2)C1 (configuration not stated) | inconclusive [inhibitor, single point] | 
